From patent US11000038B2, “Pyridone compounds and agricultural and horticultural fungicides containing the same as active ingredients” (priority 2017, dated 2021)

How the values were obtained:
[1] = system: gray mold fungi (Botrytis cinerea); test: Test Example B: tomato gray mold, spray treatment of tomato plants; details: for Test B control value class (tomato gray mold): control value=100{1-(n/3)}; for Test B control value: tomato gray mold
[2] = system: cabbage Alternaria sooty spot fungi (Alternaia brassicicola); test: Test Example C: cabbage Alternaria sooty spot, spray treatment of cabbage plants; format: in vivo; details: for Test C control value class (cabbage Alternaria sooty spot): control value=100{1-(n/3)}; for Test C control value: cabbage Alternaria sooty spot
Description: [Test Example C] Cabbage Alternaria Sooty Spot
Test plants (cabbage variety: Shikidori) were cultivated until the cotyledons extended after the sowing of seeds.
<Control Value> Control value=100{1−(n/3)}

[3] = system: grape downy mildew fungus (Plasmopara viticola); test: Test Example G: grape downy mildew, spray treatment of grape plants; details: for Test G control value class (grape downy mildew): 2.5 ml/pot, grape Neomuscat, 7 to 10 days from inoculation; for Test G control value: grape downy mildew, 7 to 10 days after inoculation
[4] = system: wheat brown rust fungi (Puccinia recondita); test: Test Example E: wheat brown rust, spray treatment of wheat plants; format: in vivo; details: for Test E control value class (wheat brown rust): control value=100{1-(n/3)}; for Test E control value: wheat brown rust
[5] = system: barley powdery mildew fungi (Blumeria graminis f. sp. hordei); test: Test Example D: barley powdery mildew, spray treatment of barley plants; details: for Test D control value class (barley powdery mildew): control value=100{1-(n/3)}; for Test D control value: barley powdery mildew
[6] = spray treatment of tomato plants
[7] = spray treatment of cabbage plants
[8] = spray treatment of wheat plants
[9] = spray treatment of barley plants

SMILES | Test B control value [1, 6] | Test C control value [2, 7] | Test G control value ([3]; 250 ppm spray (2.5 ml/pot)) | Test E control value [4, 8] | Test D control value [5, 9] | Test B control value ([1]; spray treatment) | Test C control value ([2]; spray treatment) | Test G control value ([3]; 250 ppm spray) | Test E control value ([4]; spray treatment) | Test D control value ([5]; spray treatment) | other results
O=c1c(Cl)cn(C2CCCCC2)c(-c2c(F)cc(F)cc2F)c1Cl [Compound 26] | – | – | – | – | – | – | – | – | – | – | Test B control value class (tomato gray mold) [1, 6]: H (H shows the control value of more than 50%); Test C control value class (cabbage Alternaria sooty spot) [2, 7]: H (H shows the control value of more than 50%); Test G control value class (grape downy mildew) ([3]; 250 ppm spray): L (L shows the control value of 50% or less); Test E control value class (wheat brown rust) [4, 8]: H (H shows the control value of more than 50%); Test D control value class (barley powdery mildew) [5, 9]: L (L shows the control value of 50% or less)
Cc1ccccc1-n1cc(C)c(=O)c(CC(F)(F)F)c1-c1c(F)cc(F)cc1F [Compound 355] | L (L shows the control value of 50% or less) | H (H shows the control value of more than 50%) | L (L shows the control value of 50% or less) | L (L shows the control value of 50% or less) | L (L shows the control value of 50% or less) | – | – | – | – | – | –
Cc1c(OCC(C)C)cccc1-n1cc(Br)c(=O)c(Br)c1-c1c(F)cc(F)cc1F [Compound 438] | – | – | – | – | – | H (H shows the control value of more than 50%) | H (H shows the control value of more than 50%) | L (L shows the control value of 50% or less) | H (H shows the control value of more than 50%) | L (L shows the control value of 50% or less) | –
Cc1cccc(C)c1-n1cc(Cl)c(=O)c(Cl)c1-c1c(F)cc(F)cc1F [Compound 305] | H (H shows the control value of more than 50%) | L (L shows the control value of 50% or less) | L (L shows the control value of 50% or less) | L (L shows the control value of 50% or less) | L (L shows the control value of 50% or less) | – | – | – | – | – | –
Cc1cccc(F)c1-n1cc(Br)c(=O)c(Cl)c1-c1ccc(F)cc1 [Compound 358] | H (H shows the control value of more than 50%) | L (L shows the control value of 50% or less) | L (L shows the control value of 50% or less) | L (L shows the control value of 50% or less) | L (L shows the control value of 50% or less) | – | – | – | – | – | –
Cc1ccc(-c2c(Cl)c(=O)c(Cl)cn2-c2ccccc2C)cc1 [Compound 411] | – | – | – | – | – | L (L shows the control value of 50% or less) | L (L shows the control value of 50% or less) | L (L shows the control value of 50% or less) | H (H shows the control value of more than 50%) | L (L shows the control value of 50% or less) | –
Cc1ccccc1-n1cc(Br)c(=O)c(Cl)c1-c1ccc(F)cc1 [Compound 235] | H (H shows the control value of more than 50%) | H (H shows the control value of more than 50%) | H (H shows the control value of more than 50%) | H (H shows the control value of more than 50%) | L (L shows the control value of 50% or less) | – | – | – | – | – | –
Cc1ccccc1-n1cc(Br)c(=O)c(CC(F)(F)F)c1-c1c(F)cc(F)cc1F [Compound 341] | L (L shows the control value of 50% or less) | L (L shows the control value of 50% or less) | L (L shows the control value of 50% or less) | L (L shows the control value of 50% or less) | L (L shows the control value of 50% or less) | – | – | – | – | – | –
CCc1c(-c2ccccc2)n(-c2cccc(OC)c2C)cc(C)c1=O [Compound 563] | – | – | – | – | – | H (H shows the control value of more than 50%) | H (H shows the control value of more than 50%) | L (L shows the control value of 50% or less) | H (H shows the control value of more than 50%) | H (H shows the control value of more than 50%) | –
COc1ccc(C)c(-n2cc(Cl)c(=O)c(Cl)c2-c2c(F)cc(F)cc2F)c1 [Compound 229] | H (H shows the control value of more than 50%) | H (H shows the control value of more than 50%) | H (H shows the control value of more than 50%) | H (H shows the control value of more than 50%) | H (H shows the control value of more than 50%) | – | – | – | – | – | –
Cc1ccc(C(F)(F)F)cc1-n1cc(Br)c(=O)c(Cl)c1-c1c(F)cc(F)cc1F [Compound 309] | H (H shows the control value of more than 50%) | H (H shows the control value of more than 50%) | L (L shows the control value of 50% or less) | H (H shows the control value of more than 50%) | L (L shows the control value of 50% or less) | – | – | – | – | – | –
CCc1c(-c2ccccc2)n(-c2ccccc2Cl)cc(C)c1=O [Compound 538] | – | – | – | – | – | H (H shows the control value of more than 50%) | H (H shows the control value of more than 50%) | L (L shows the control value of 50% or less) | H (H shows the control value of more than 50%) | H (H shows the control value of more than 50%) | –
CCOc1cccc(-n2cc(Br)c(=O)c(Br)c2-c2c(F)cc(F)cc2F)c1C [Compound 422] | – | – | – | – | – | H (H shows the control value of more than 50%) | H (H shows the control value of more than 50%) | H (H shows the control value of more than 50%) | H (H shows the control value of more than 50%) | H (H shows the control value of more than 50%) | –
Cc1cccc(C)c1-n1cc(Cl)c(=O)c(Cl)c1-c1ccc(F)cc1 [Compound 345] | L (L shows the control value of 50% or less) | L (L shows the control value of 50% or less) | L (L shows the control value of 50% or less) | L (L shows the control value of 50% or less) | L (L shows the control value of 50% or less) | – | – | – | – | – | –
COc1cc(F)c(-c2c(Cl)c(=O)c(Br)cn2-c2ccccc2F)c(F)c1 [Compound 21] | – | – | – | – | – | – | – | – | – | – | Test B control value class (tomato gray mold) [1, 6]: H (H shows the control value of more than 50%); Test C control value class (cabbage Alternaria sooty spot) [2, 7]: H (H shows the control value of more than 50%); Test G control value class (grape downy mildew) ([3]; 250 ppm spray): L (L shows the control value of 50% or less); Test E control value class (wheat brown rust) [4, 8]: H (H shows the control value of more than 50%); Test D control value class (barley powdery mildew) [5, 9]: L (L shows the control value of 50% or less)
O=c1c(Cl)cn(-c2ccccc2Br)c(-c2c(F)cccc2F)c1Br [Compound 93] | – | – | – | – | – | – | – | – | – | – | Test B control value class (tomato gray mold) [1, 6]: H (H shows the control value of more than 50%); Test C control value class (cabbage Alternaria sooty spot) [2, 7]: H (H shows the control value of more than 50%); Test G control value class (grape downy mildew) ([3]; 250 ppm spray): L (L shows the control value of 50% or less); Test E control value class (wheat brown rust) [4, 8]: H (H shows the control value of more than 50%); Test D control value class (barley powdery mildew) [5, 9]: L (L shows the control value of 50% or less)
COc1ccc(C)c(-n2cc(Br)c(=O)c(C)c2-c2ccccc2)c1 [Compound 400] | – | – | – | – | – | H (H shows the control value of more than 50%) | H (H shows the control value of more than 50%) | H (H shows the control value of more than 50%) | H (H shows the control value of more than 50%) | L (L shows the control value of 50% or less) | –
CCc1cn(-c2ccccc2C)c(-c2c(F)cc(F)cc2F)c(C)c1=O [Compound 328] | H (H shows the control value of more than 50%) | H (H shows the control value of more than 50%) | L (L shows the control value of 50% or less) | H (H shows the control value of more than 50%) | H (H shows the control value of more than 50%) | – | – | – | – | – | –
O=c1c(Br)cn(-c2ccccc2)c(-c2ccc(F)c(F)c2)c1Cl [Compound 604] | – | – | – | – | – | L (L shows the control value of 50% or less) | H (H shows the control value of more than 50%) | L (L shows the control value of 50% or less) | L (L shows the control value of 50% or less) | L (L shows the control value of 50% or less) | –
CCc1ccccc1-n1cc(Br)c(=O)c(CC)c1-c1c(F)cc(F)cc1F [Compound 488] | – | – | – | – | – | H (H shows the control value of more than 50%) | H (H shows the control value of more than 50%) | H (H shows the control value of more than 50%) | H (H shows the control value of more than 50%) | H (H shows the control value of more than 50%) | –
